Reference: publication PMC11360281 (Viruses, 2024)

What was measured:
in vitro = settings: human
[1] = test system: HCV genotype 1b (strain Con1) subgenomic replicon; assay: HCV GT 1b (Con1) subgenomic replicon luciferase assay in Huh5-2 cells; format: cell-based; settings: for SI: CC50/EC50, HCV GT 1b (Con1); for EC50: HCV GT 1b (Con1), Huh5-2 cells, F-Luc, 72 h, mean ± SD; for activity against HCV: HCV GT 1b replicon
[2] = test system: YFV (strain 17D) subgenomic replicon; assay: microbe, parasite or virus in culture; format: cell-based; settings: for EC50: Yellow fever virus, read-out: YFV EC50
[3] = test system: DENV serotype 2 (strain 16681) subgenomic replicon; assay: microbe, parasite or virus in culture; format: cell-based; settings: for EC50: Dengue virus, DENV2, read-out: DENV EC50
[4] = test system: HCV-N.2-GLuc/T181I (NS5B mutant T181I); assay: microbe, parasite or virus in culture; format: cell-based; settings: for EC50: Hepatitis C virus, Huh-7, 72 h; for mut/wt EC50 ratio (fold less susceptible): T181I mutant vs wild-type HCV-N.2-GLuc
[5] = test system: HCV GT 2a (strain JFH1) subgenomic replicon; assay: HCV GT 2a subgenomic replicon luciferase assay in Huh7-JFH1 cells; format: cell-based; settings: for EC50: Hepatitis C virus, GT2A, HCV GT 2a (JFH1), Huh7-JFH1 cells, mean ± SD
[6] = test system: wild-type HCV-N.2-GLuc (GT 1b full-length); assay: microbe, parasite or virus in culture; format: cell-based; settings: Hepatitis C virus, GT1B, Huh-7, 72 h
[7] = test system: HCV GT 4a (strain ED43) subgenomic replicon; assay: HCV GT 4a subgenomic replicon luciferase assay in Huh7.5-4a cells; format: cell-based; settings: Hepatitis C virus, GT4A, HCV GT 4a (ED43), mean ± SD
[8] = test system: HCV GT 1b (Con1) replicon; assay: Combinatory treatment with DSV or Peg-IFN in Huh5-2 replicon cells, F-Luc; settings: for type of interaction with DSV: Huh5-2 replicon cells
[9] = test system: HCV GT 3a (strain S52) subgenomic replicon; assay: HCV GT 3a subgenomic replicon luciferase assay in Huh7.5-3a cells; format: cell-based; settings: for EC50: Hepatitis C virus, GT3A, HCV GT 3a (S52), Huh7.5-3a cells, mean ± SD
[10] = test system: HCV RNA (subgenomic Con1 replicon); settings: Hepatitis C virus, Huh-5-2, read-out: HCV RNA: EC50
HCV NS5A = assay: Western blot analysis for NS5A in Huh5-2 cells
[11] = test system: HCV GT 1b (Con1) replicon; format: cell-based; settings: 36-adapted vs DMSO-adapted Huh5-2 replicon cells
[12] = Hepatitis C virus, GETYPE1B|GT1B, Huh-5-2, 72 h, read-out: EC50
[13] = compound 25 μM + 10 IU/mL Peg-IFN
[14] = compound 50 μM + 10 IU/mL Peg-IFN
[15] = Hepatitis C virus, GETYPE1B|GT1B, Huh-5-2, 72 h

`O=C1Cn2c(cc3ccccc32)C(=O)N1O` [Compound 6] showed a CC50 (in vitro) of over 200 µM, an SI [1] of over 1.6 and an EC50 [1, 12] of 127 ± 8.98 µM. For the same compound, the “YFV SI” value [2] was over 3.48, the EC50 [2] was 57.6 ± 2.64 µM and the EC50 [3] was over 200 µM.

For `O=C1Cn2c(cc3cc(F)ccc32)C(=O)N1O` [Compound 12], the CC50 (in vitro) was over 200 µM, the SI [1] was over 2.5 and the EC50 [1, 12] was 81 ± 8.24 µM. The EC50 [2] was over 200 µM and the EC50 [3] was over 200 µM.

`COc1ccc2c(c1)cc1n2CC(=O)N(O)C1=O` [Compound 18] gave a CC50 (in vitro) of over 200 µM, an EC50 [1, 12] of over 200 µM and an EC50 [2] of over 200 µM. It also gave an EC50 [3] of over 200 µM.

For `COc1cc2cc3n(c2cc1OC)CC(=O)N(O)C3=O` [Compound 24], the CC50 (in vitro) was over 200 µM, the EC50 [1, 12] was over 200 µM and the EC50 [2] was over 200 µM. It also gave an EC50 [3] of over 200 µM.

With `O=C1Cn2c(cc3cc(Cl)ccc32)C(=O)N1O` [Compound 30] the EC50 [4] was 31.5 ± 4.58 µM, the “mut/wt EC50 ratio (fold less susceptible)” value [4] was 2.57 and the CC50 (in vitro) was over 200 µM. For the same compound, the “activity against GT 2a” value [5] was “inactive”, the EC50 [5] was over 100 µM and the EC50 [6] was 12.2 ± 1.18 µM. It also gave an EC50 [7] of 84.7 ± 5.28 µM, an SI [1] of over 20.2 and an EC50 [1, 12] of 9.9 ± 1.75 µM. The “type of interaction with DSV” value [8] was “additive effect”, the “CDI (coefficient of drug interaction)” value ([8]; combined with DSV) was “≈ 1” and the “CDI (coefficient of drug interaction)” value ([8]; combined with Peg-IFN) was “≈ 0.75”. For the same compound, the “CDI (coefficient of drug interaction)” value ([8]; compound 25 μM + 10 pM DSV) was 1.09, the “CDI (coefficient of drug interaction)” value [8, 13] was 0.76 and the “CDI (coefficient of drug interaction)” value ([8]; compound 50 μM + 10 pM DSV) was 0.97. The “CDI (coefficient of drug interaction)” value [8, 14] was 0.76, the EC50 [2] was over 200 µM and the EC50 [3] was over 200 µM. For the same compound, the “activity against GT 3a” value [9] was “inactive” and the EC50 [9] was over 100 µM.

With `O=C1Cn2c(cc3cccc([N+](=O)[O-])c32)C(=O)N1O` [Compound 36] the EC50 [10] was 3.97 µM, the EC50 [4] was 3.3 ± 0.18 µM and the “mut/wt EC50 ratio (fold less susceptible)” value [4] was 2.43. The CC50 (in vitro) was 175 ± 13.5 µM, the “NS5A (% of C)” value (HCV NS5A; 36 at 12.5 μM) was 34.56 ± 2.7 % of C and the “NS5A (% of C)” value (HCV NS5A; 36 at 25 μM) was 27.98 ± 1.19 % of C. The “NS5A (% of C)” value (HCV NS5A; 36 at 50 μM) was 3.95 ± 1.14 % of C, the “activity against GT 2a” value [5] was “moderate activity” and the EC50 [5] was 78.3 ± 3.44 µM. For the same compound, the EC50 [6] was 1.36 ± 0.11 µM, the EC50 [7] was over 100 µM and the “36/DMSO EC50 ratio (fold reduction of activity)” value [11] was 3.67 and ~ 3. The SI [1] was 108.9, the EC50 ([1]; read-out: EC50) was 1.61 ± 0.32 µM and the “fold higher potency than 30” value ([1]; HCV GT 1b, 36 compared to 30) was “about 6 fold”. The EC50 [1, 12] was 1.6 µM, the “type of interaction with DSV” value [8] was “synergistic effect” and the “CDI (coefficient of drug interaction)” value ([8]; combined with DSV) was “≈ 0.9”. The “CDI (coefficient of drug interaction)” value ([8]; combined with Peg-IFN) was “≈ 0.75”, the “CDI (coefficient of drug interaction)” value ([8]; compound 25 μM + 10 pM DSV) was 0.89 and the “CDI (coefficient of drug interaction)” value [8, 13] was 0.80. For the same compound, the “CDI (coefficient of drug interaction)” value ([8]; compound 50 μM + 10 pM DSV) was 0.91, the “CDI (coefficient of drug interaction)” value [8, 14] was 0.74 and the “YFV SI” value [2] was 1.22. The EC50 [2] was 144 ± 4.9 µM, the “DENV SI” value [3] was 1.41 and the EC50 [3] was 124 ± 6.49 µM. The “activity against GT 3a” value [9] was “moderate activity” and the EC50 [9] was 27.9 ± 1.64 µM.

In the case of `Nc1cccc2cc3n(c12)CC(=O)N(O)C3=O` [Compound 38], the CC50 (in vitro) is reported as over 200 µM, the EC50 [1, 12] is reported as over 200 µM and the EC50 [2] is reported as over 200 µM. For the same compound, the “DENV SI” value [3] was over 2.66, the “activity against DENV replication” value [3] was “moderate activity” and the EC50 [3] was 75.2 ± 6.58 µM.

Work on `O=C1Cn2c(cc3cc(O)ccc32)C(=O)N1O` [Compound 39] yielded a CC50 (in vitro) of over 200 µM, an EC50 [1, 15] of over 200 µM and an EC50 [2] of over 200 µM. The EC50 [3] was over 200 µM.

In the case of `O=C1Cn2c(cc3ccccc32)C(=O)N1` [Compound 40, pyrazino[1,2-a]indole-1,3(2H,4H)-dione], the CC50 (in vitro) is reported as over 200 µM, the EC50 [1, 15] is reported as over 200 µM and the EC50 [2] is reported as over 200 µM. It also gave an EC50 [3] of over 200 µM.

In the case of `O=C(CN1C(=O)Cn2c(cc3ccccc32)C1=O)NO` [Compound 44], the CC50 (in vitro) is reported as over 200 µM, the EC50 [1, 12] is reported as over 200 µM and the EC50 [2] is reported as over 200 µM. For the same compound, the EC50 [3] was over 200 µM.

With `O=C(O)CN1C(=O)Cn2c(cc3cc(F)ccc32)C1=O` [Compound 46] the CC50 (in vitro) was over 200 µM, the EC50 [1, 12] was over 200 µM and the EC50 [2] was over 200 µM. It also gave an EC50 [3] of over 200 µM.

In the case of `O=C(CN1C(=O)Cn2c(cc3cc(F)ccc32)C1=O)NO` [Compound 48], the CC50 (in vitro) is reported as over 200 µM, the EC50 [1, 12] is reported as over 200 µM and the EC50 [2] is reported as over 200 µM. The EC50 [3] was over 200 µM.

Work on `O=C(CN1C(=O)Cn2c(cc3cc(Cl)ccc32)C1=O)NO` [Compound 52] yielded a CC50 (in vitro) of over 200 µM, an EC50 [1, 12] of over 200 µM and an EC50 [2] of over 200 µM. For the same compound, the “DENV SI” value [3] was over 3.26, the “activity against DENV replication” value [3] was “moderate activity” and the EC50 [3] was 61.3 ± 3.1 µM.

In the case of `O=C1Cn2cccc2C(=O)N1O` [Compound 58, 2-hydroxypyrrolo[1,2-a]pyrazine-1,3(2H,4H)-dione], the CC50 (in vitro) is reported as over 200 µM, the “activity against HCV” value [1] is reported as “inactive” and the EC50 [1, 12] is reported as over 200 µM. The EC50 [2] was over 200 µM, the “DENV SI” value [3] was over 1.52 and the EC50 [3] was 131 ± 10.1 µM.

In the case of `O=C(CN1C(=O)Cn2cccc2C1=O)NO` [Compound 62], the CC50 (in vitro) is reported as over 200 µM, the “activity against HCV” value [1] is reported as “inactive” and the EC50 [1, 12] is reported as over 200 µM. The EC50 [2] was over 200 µM and the EC50 [3] was over 200 µM.

With `CC1C(=O)N(O)C(=O)c2cc3ccccc3n21` (stereo not shown) [Compound 66] the CC50 (in vitro) was 177 ± 5.71 µM, the SI [1] was 1.8 and the EC50 [1, 12] was 99.7 ± 5.52 µM. For the same compound, the “YFV SI” value [2] was 5.85, the “fold higher potency than compound 6” value ([2]; YFV, 66 compared to 6) was ~ 2 fold and the EC50 [2] was 30.3 ± 2.1 µM. It also gave an EC50 [3] of over 100 µM.

Work on `CC1C(=O)N(O)C(=O)c2cc3cc(F)ccc3n21` (stereo not shown) [Compound 70] yielded a CC50 (in vitro) of 86.5 ± 3.36 µM, an SI [1] of 2.6 and an EC50 [1, 12] of 32.9 ± 1.93 µM. The “YFV SI” value [2] was 7.41, the EC50 [2] was 11.7 ± 0.66 µM and the EC50 [3] was over 50 µM.

Work on `COc1ccc2c(c1)cc1n2C(C)C(=O)N(O)C1=O` (stereo not shown) [Compound 74] yielded a CC50 (in vitro) of 101 ± 4.05 µM, an SI [1] of 1.6 and an EC50 [1, 12] of 61.1 ± 1.72 µM. The “YFV SI” value [2] was 4.82, the EC50 [2] was 20.9 ± 1.28 µM and the EC50 [3] was over 50 µM.

Work on `CC1C(=O)N(O)C(=O)c2cc3cc(Cl)ccc3n21` (stereo not shown) [Compound 78] yielded a CC50 (in vitro) of 99.9 ± 3.54 µM, an SI [1] of 7.8 and an EC50 [1, 12] of 12.9 ± 0.39 µM. For the same compound, the “YFV SI” value [2] was 15.22, the EC50 [2] was 6.57 ± 0.33 µM and the EC50 [3] was over 50 µM.

“And” between values parts separate entries of the source, which are not always exact repeats. Equal entries are not always repeated. Where two headings read alike, the source gives them in different places.
